Experimental data from the supplement of paper PMC10126150.
Sequences with one replicate were seen in a single cluster, so their values are uncertain.

system: ATP; assay: switch fluorescence ratio, 500 uM ATP over buffer (Cy3 cluster intensity, sum of 5 cycles each) (fold (ratio)); higher = stronger signal-on switching upon ATP binding; sequences stand for … in TCGTCGGCAGCGTCAGATGTGTATAAGAGACAGTTTTTTTTTTTTTTTTTTTTTTTTT…TC; conditions: aptamer strand: ATP DNA aptamer (quencher-CACCTGGGGGAGTATTGCGGAGGAAGG + anchor), 100 nM annealed; ATP concentration: 500 uM; one replicate
Summary of the method: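 Clusters carrying Cy3-labelled switching strands on a modified Illumina MiSeq flow-cell were annealed to 100 nM quencher-labelled ATP aptamer and imaged in selection buffer. They were imaged again after 15 min with 500 uM ATP at 22 °C, over five buffer/ATP cycles with NaOH stripping and re-annealing in between. For each cluster, the fluorescence ratio is the summed Cy3 intensity of the target cycles divided by that of the buffer cycles, averaged per switch-domain sequence. Clusters outside 100-1000 RFU were left out.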
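Further: ATP exposure 15 min at 22 °C before imaging.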

Sequence	switch fluorescence ratio
TTATTTAATG	0.997
TTATTTGGT	0.997
TTATTTTA	0.97
TTCAAAAACG	1.06
TTCAACAGGC	0.961
TTCACGTTTC	1.04
TTCACTAT	0.98
TTCACTTCAA	1.03
TTCAGAAAT	0.974
TTCAGACAC	1.06
TTCAGACACC	1
TTCAGACCCG	1.03
TTCAGACGTG	1.01
TTCAGATAGT	0.994
TTCAGATGGA	1
TTCAGCGGCC	1.03
TTCAGCTACG	1.06
TTCAGCTGCG	1.02
TTCAGGAAGG	1.04
TTCAGGTATA	1.01
TTCAGGTTG	1.04
TTCAGTCATG	0.992
TTCAGTCTTT	1.05
TTCAGTTACT	1.03
TTCAGTTCTG	0.981
TTCATAAATG	0.98

Sequence	switch fluorescence ratio
TTCATAGCAA	1.1
TTCATCTTAA	0.962
TTCATTAGCC	1.02
TTCATTGCG	1.02
TTCATTTTAT	1.03
TTCATTTTCG	1.03
TTCCAAAGCG	1.02
TTCCAACAGC	1.05
TTCCACAGGC	1.63
TTCCACAGGT	2.14
TTCCAGCCTG	0.986
TTCCAGTCTT	1.14
TTCCATCCCT	1.09
TTCCATGAGC	0.979
TTCCCCGAC	1.42
TTCCCCTGGG	1.37
TTCCCGAAAT	1.17
TTCCCTCTTT	1.2
TTCCGAATTA	1.08
TTCCGCCTA	1.55
TTCCGCGAAA	6
TTCCGGCAAT	1.59
TTCCGTACGA	1.82
TTCCTACGTG	1.11
TTCCTAGCCC	1.31
TTCCTATTTG	1.03

Sequence	switch fluorescence ratio
TTCCTCCATT	1.04
TTCCTCGTAG	1.24
TTCCTGGCGA	1.03
TTCCTGTCTT	1.01
TTCCTTTTCG	1
TTCGAATATC	1.11
TTCGAATTAT	0.98
TTCGAGCAGC	1.05
TTCGAGCTGC	0.984
TTCGAGGCGA	1.68
TTCGAGTCGC	1.05
TTCGATATGA	1.01
TTCGATCGCT	1.02
TTCGATCGGG	1.01
TTCGATGCTT	2.1
TTCGCACATA	2.17
TTCGCACGGT	0.997
TTCGCCGAGT	1.01
TTCGCTGGGA	1
TTCGGCATTG	0.978
TTCGGCGGAA	1.03
TTCGGGCAAA	0.986
TTCGGGTACA	1.03
TTCGGTCACT	1
TTCGGTGAAT	0.99
TTCGGTGTCC	1.03

Sequence	switch fluorescence ratio
TTCGGTTAAA	0.962
TTCGTAGGGA	0.986
TTCGTCGACC	0.973
TTCGTGAGGC	1.03
TTCGTGATGT	0.975
TTCGTGGGCA	1.11
TTCGTGGTAT	1
TTCGTGTGTG	1.01
TTCGTTCCCG	0.959
TTCGTTCGGA	0.962
TTCGTTGACA	0.997
TTCTAACTGA	0.988
TTCTAAGCCG	1.12
TTCTACCTG	1
TTCTACGCAG	1.13
TTCTACTTGT	0.988
TTCTAGATTT	0.982
TTCTATAGTG	1.03
TTCTATTCTC	0.97
TTCTCCCCCC	1.81
TTCTCTGGCG	0.998
TTCTCTTTAA	0.963
TTCTGACTC	1.28
TTCTGAGGGT	0.92
TTCTGATAGT	0.966
TTCTGATTCC	1.07

Sequence	switch fluorescence ratio
TTCTGATTCT	1.02
TTCTGCCTGG	0.995
TTCTGCGCTT	1.24
TTCTGGCGCT	1.06
TTCTGTAGGT	1.05
TTCTGTGATT	4.54
TTCTGTGCTT	0.96
TTCTTACCTG	0.99
TTCTTACGGC	0.978
TTCTTCGCTT	1.37
TTCTTGAAAA	0.975
TTCTTGGATA	0.972
TTCTTGTGCT	0.97
TTCTTTAATC	1.01
TTCTTTATTG	0.974
TTCTTTGCCA	1
TTGAAAACGC	1.1
TTGAAACAGC	0.991
TTGAACCAGA	0.984
TTGAACGCTA	2.29
TTGAAGATAT	0.948
TTGACAATTT	1.03
TTGACATCTT	0.998
TTGACATGCA	1.09
TTGACGATTA	1.57
TTGACTAGGG	1.08

Sequence	switch fluorescence ratio
TTGAGAACAG	1.02
TTGAGGAGG	0.979
TTGAGGCTTC	1.16
TTGAGTACAG	1.06
TTGAGTAGTC	0.98
TTGAGTCTAG	1.02
TTGATAGCGA	1.81
TTGATCCCTA	0.997
TTGATCCTGA	1.01
TTGATGACAG	1.05
TTGATGAGCT	1.01
TTGATGTTG	1.01
TTGCAATGTG	1.12
TTGCAGATAG	1.82
TTGCAGGTAT	1.06
TTGCAGTGGT	0.931
TTGCATAAGG	0.988
TTGCATACTT	1.04
TTGCCAACCG	1.03
TTGCCCGATC	0.98
TTGCCCTGCG	1.02
TTGCCCTGGC	1.04
TTGCCGATGC	1.03
TTGCCGGGTA	1.01
TTGCCGTAGG	0.995
TTGCCTGATG	0.961

Sequence	switch fluorescence ratio
TTGCCTTCG	1.31
TTGCGAAGCA	0.96
TTGCGACCA	1.05
TTGCGAGACG	0.949
TTGCGCACGT	1.05
TTGCGCATGT	1.07
TTGCGCGACG	0.975
TTGCGCGATA	3.87
TTGCGCTGTT	0.985
TTGCGGATGG	1.03
TTGCGGATTA	1.02
TTGCGGGTTA	1.02
TTGCGGTTCT	1.04
TTGCGTAATC	1.2
TTGCGTAGGA	1.02
TTGCGTAGTA	0.998
TTGCGTATTA	1.01
TTGCGTCG	0.991
TTGCGTGAGA	1.05
TTGCTAGACG	1.06
TTGCTATTGT	1.01
TTGCTCATCA	1.02
TTGCTTCGTG	0.96
TTGCTTGGAT	0.982
TTGCTTGTTC	0.984
TTGCTTTT	0.984

Sequence	switch fluorescence ratio
TTGGAAACAC	1.09
TTGGAAATCG	0.983
TTGGAAATCT	1.1
TTGGAATCAG	1
TTGGAGCATA	2.45
TTGGAGCGCT	0.99
TTGGAGGG	1.04
TTGGAGGGA	1.03
TTGGATACCG	1
TTGGATCGAT	0.946
TTGGATGGCA	1.05
TTGGCATGAT	0.971
TTGGCATTGG	1
TTGGCCAAGT	0.98
TTGGCCACTG	0.968
TTGGCGAGAA	0.988
TTGGCGCAGA	1.02
TTGGCTGGAT	0.994
TTGGCTGGGC	1.01
